Test results taken from PubChem BioAssay AID651820 (National Center for Advancing Translational Sciences (NCATS), 2012).
Screen size: about 340,000 compounds; about 12,000 (3.5%) were called active. Inconclusive means that the source gave no clear call. Such entries were picked first, then a sample of the others. Calls come from the whole dose curve; as a rule, active = well fitted inhibition curve with a large enough effect; inconclusive = small, poorly fitted or top-dose-only effect, or another doubt; inactive = no such curve, though single readings can be large or run the other way. Potencies of inconclusive entries are left out as doubtful fits.

Test: qHTS Assay for Inhibitors of Hepatitis C Virus (HCV)
Conditions: Huh7.5.1 HCVcc-Cre (HCVcc is cell-culture hepatitis C virus) infection, luciferase reporter, 44 h; activity change, negative = inhibition: at 41.8 µM (top of the series) unless noted
Method in brief: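 HCVcc-Cre virus at an moi near 0.5 was added right after compound to cells cultured 4 h from seeding (1,000 cells/well). Luciferase activity was determined 44 h later, 15 min after substrate addition at RT.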
% is set by controls: 0 for no effect and ±100 for the full control effect; potency is the fitted concentration of half-maximal effect; tags give direction and shape of the fitted curve.

SMILES	Potency	activity change, negative = inhibition
Cn1c(=O)n(Cc2ccccc2)c(=O)c2c1nc1n2CCCN1CCc1ccccc1	inconclusive [inhibitor, single point]	–
Cn1c(-c2ccc(-c3ccccc3)cc2)c[nH]c1=S	active: 5.01 µM	–
COc1cc(OC)c(C2=NOC(C(=O)N3CCc4ccccc4C3)C2)cc1Cl (centres undefined)	inconclusive [inhibitor, single point]	–
CN(C)CCC(O)c1ccccc1 (centres undefined)	–	inactive: 17%
Cn1c(CCC(=O)Nc2cc(S(C)(=O)=O)ccc2Cl)nc2cc(S(=O)(=O)N3CCOCC3)ccc21	–	inactive: 13.1%
Cc1nc2cc3sc(C)nc3cc2s1	–	inactive: 7.78%
O=C1NC(c2ccc(Cl)c([N+](=O)[O-])c2)Nc2ccccc21 (centres undefined)	inconclusive [inhibitor, single point]	–
CCN(CC)c1ccc(S(=O)(=O)N2CCOCC2)cc1NC(=O)COC(=O)c1cccnc1SC	inconclusive [inhibitor, full curve, poor fit]	–
Cc1cccc(C)c1N1C(=O)CC(N(O)c2ccccc2)C1=O (centres undefined)	inconclusive [inhibitor, partial curve]	–
CC(Nc1nc(-c2ccc3c(c2)NC(=O)CO3)cs1)c1ccccc1 (centres undefined)	active: 11.2 µM	–
CCN(CC)c1ccc(C(=O)NNC(=O)c2cccn2C)cc1	active: 7.08 µM	–
COc1cc(C(C[N+](=O)[O-])c2c(N)n(C)c(=O)n(C)c2=O)ccc1O (centres undefined)	inconclusive [inhibitor, single point]	–
O=S(=O)(c1ccc(Oc2ccc(Cl)cc2)c(S(=O)(=O)N2CCCCC2)c1)N1CCCCC1	–	inactive: 5.86%
Cc1c(C)n(C)c2ccc(C(=O)N3CCN(c4ccccn4)CC3)cc12	inconclusive [inhibitor, single point]	–
COc1ccc(C(CNC(=O)c2cccc(S(=O)(=O)N3CCc4ccccc43)c2)N(C)C)cc1 (centres undefined)	inconclusive [inhibitor, single point]	–
COC(=O)c1sc(NC(=O)COc2ccccc2C)nc1C	inconclusive [inhibitor, full curve, poor fit]	–
Cc1ccc(-c2cc(=O)c3cc(F)ccc3[nH]2)cc1	–	inactive: -5.8%
COC(=O)c1sc(SC)c(S(=O)(=O)C(C)C)c1N/N=C(\C#N)C(=O)c1ccccc1	–	inactive: 6.99%
COc1ccc(S(=O)(=O)N2CCCC2)cc1Br	–	inactive: 11.8%
CSC1=C(C#N)C(c2ccccc2Cl)C(C(=O)c2cccs2)C(O)(C(F)(F)F)N1 (centres undefined)	inconclusive [inhibitor, single point]	–
CCNC(=S)Nc1ccc(Cl)c(C(F)(F)F)c1	inconclusive [inhibitor, single point]	–
CC(C)n1cc(C(=O)N(CC(=O)NC(C)(C)C)Cc2ccccc2)cn1	inconclusive [inhibitor, single point]	–
Cc1cc(N)n(-c2ccccn2)n1	–	inactive: -7.77%
CC(C)COc1cccc(-c2cc(C(=O)Nc3ccon3)c3ccccc3n2)c1	inconclusive [inhibitor, single point]	–
CC(CC(C)(C)N1CC1)=NO	inconclusive [inhibitor, single point]	–

SMILES	Potency	activity change, negative = inhibition
CCCCCOc1ccc(C)cc1CN(CCCl)CCCl	–	inconclusive: -77.1% [inhibitor]
Cc1cc(C(=O)NNC(=O)c2ccc(Cl)cc2)c2ccccc2n1	–	inactive: -1.84%
COC(=O)C1=C(C)NC(C)=C(C(=O)O[C@@H]2CCCN(Cc3ccccc3)C2)[C@@H]1c1cccc([N+](=O)[O-])c1	inconclusive [inhibitor, partial curve]	–
C=CCn1cc(C(=O)NCc2ccc(Cl)cc2)c(=O)c2cc(S(=O)(=O)N(CC)CC)ccc21	inconclusive [inhibitor, full curve, poor fit]	–
COc1ccccc1C(=O)NC(=S)Nc1ccc(NC(=O)c2cccs2)cc1	inconclusive [inhibitor, single point]	–
COc1ccc(C(=O)CSc2nncn2C)cc1	–	inactive: 14.8%
COCCn1c(SCC(=O)Nc2sccc2C(N)=O)nc2cc(Cl)ccc2c1=O	inconclusive [inhibitor, single point]	–
c1ccc(-c2nccnc2-c2ccccc2)cc1	–	inactive: -3.06%
CCSCCOC(=O)C1=C(C)NC(=O)NC1c1cc(OC)ccc1OC (centres undefined)	–	inactive: 5.73%
Cc1cc(C)cc(Oc2nc(-c3ccccc3)cc(C)c2S(C)(=O)=O)c1	inconclusive [inhibitor, partial curve]	–
Cc1cc(C)cc(N(CCC(=O)Nc2nnc(C3CC3)s2)S(=O)(=O)c2ccc(Cl)cc2)c1	inconclusive [inhibitor, single point]	–
CCCOc1ccc(C(=O)Nc2ccc(N3CCN(C(=O)c4ccco4)CC3)cc2)cc1	–	inactive: -10.6%
COC(=O)C1CCN(c2ccc(C(N)=O)cc2[N+](=O)[O-])CC1	–	inactive: 1.9%
CC(C)c1ccc(NC(=O)c2cc(S(=O)(=O)N3CCCCC3)c[nH]2)cc1	–	inactive: 8.71%
CC(C)CCC1(C)NC(=O)N(CC(=O)c2ccc[nH]2)C1=O (centres undefined)	inconclusive [inhibitor, single point]	–
O=C(c1ccncc1)N1c2ccccc2Sc2ccccc21	inconclusive [inhibitor, single point]	–
O=C(N=Nc1c(O)[nH]c2ccc([N+](=O)[O-])cc12)c1ccccc1[N+](=O)[O-]	inconclusive [inhibitor, full curve]	–
CC1(C)C(=O)C=C[C@]2(C)[C@H]3CC[C@@]4(C)[C@H](c5ccoc5)OC(=O)[C@H]5O[C@]54[C@]3(C)[C@H](O)C[C@@H]12	–	inactive: 1.25% [at 8.37 µM]
C[n+]1c2cc(N)ccc2cc2ccc(N)cc21	active: 1.41 µM	–
O=C(Nc1ccccc1C(=O)Nc1ccccn1)c1cc(F)c(F)cc1Cl	inconclusive [inhibitor, partial curve]	–
Cc1ccc(N=Cc2sc(O)c3ccccc23)cc1	inconclusive [inhibitor, single point]	–
CC1CCCN(CCOc2ccc3ccccc3c2Br)C1 (centres undefined)	active: 11.2 µM	–
CCCCOC(=O)Nc1nnc(Cc2ccc(Cl)cc2)s1	–	inactive: 21.1%
O=C(O)CCC(=O)Nc1ccccc1C(=O)NCCc1ccccc1	–	inactive: 22.7%
O=C(c1cc(C(=O)NCCc2ccccc2)c(=O)n(CCc2ccccc2)c1)c1cc(Cl)ccc1O	inconclusive [inhibitor, single point]	–

SMILES	Potency	activity change, negative = inhibition
O=C(c1ccccc1)N1CCN(Cc2cccc(Oc3ccccc3)c2)CC1	inconclusive [inhibitor, single point]	–
O=C(COc1ncnc2c(Cl)cc(Cl)cc12)Nc1cc([N+](=O)[O-])ccc1Cl	–	inactive: 5.69%
COc1ccc(C(=O)/C=C/C(=O)N(CC(=O)NC2CCCCC2)Cc2ccccc2OC)c(O)c1	inconclusive [inhibitor, single point]	–
O=C(N/N=C/c1ccccn1)C1CC1	–	inactive: -5.73%
COc1ccc(C(C#N)=C2C=CC(=NO)C=C2)cc1	inconclusive [inhibitor, single point]	–
Fc1ccc(Cn2nnnc2C(c2ccc(F)cc2)N2CC=C(c3ccc(F)cc3)CC2)cc1 (centres undefined)	–	inactive: 15.3%
O=C1NC(c2ccccc2)=C(c2ccc3ccccc3n2)C(c2ccc(F)cc2)N1 (centres undefined)	inconclusive [inhibitor, single point]	–
COc1ccc(/C=N/NC(=O)c2ccoc2C)cc1OC	–	inactive: -5.82%
CNC(=O)CSc1nc(-c2ccccc2)c(-c2ccccc2)o1	–	inactive: -21.6%
O=C(Nc1cc(-c2ccccc2)nn1-c1ccccc1)c1ccccc1F	inconclusive [inhibitor, partial curve]	–
COc1ccc(-c2nn(C)c3sc(C(=O)N4CCOCC4)cc23)cc1OC	inconclusive [inhibitor, partial curve]	–
Cc1ccc(C)c(N2CCN(C(=O)c3ccc4c(c3)c(C)c(C)n4C)CC2)c1	inconclusive [inhibitor, single point]	–
Cc1ccc(S(=O)(=O)n2nc(-c3cccnc3)nc2N)cc1	–	inactive: -1.69%
Cc1ccc(C2CC(=O)Nc3c2ccc2ccccc32)cc1[N+](=O)[O-] (centres undefined)	inconclusive [inhibitor, single point]	–
O=C(O)c1cc2c(s1)-c1ccccc1OC2	–	inactive: 17.1%
O=C1N(Cc2cccc(Cl)c2)C[C@@H]2C[C@@H](c3cccn3-c3nccs3)N3CCC[C@@]123	inconclusive [inhibitor, single point]	–
CCCCCC(=O)NC(=S)Nc1ccc(N2CCCCC2)c(Cl)c1	–	inactive: 18.6%
CC(C)c1ccc(C2(C)NC(=O)N(CC(=O)NCC3COc4ccccc4O3)C2=O)cc1 (centres undefined)	inconclusive [inhibitor, partial curve, poor fit]	–
Cc1ccc(N=Cc2c(O)n(-c3cc(Cl)ccc3N3CCOCC3)c(=O)c3ccccc23)cc1C	inconclusive [inhibitor, partial curve, poor fit]	–
Cc1[nH]c2ccccc2c1Cc1nnc(SCCC#N)o1	inconclusive [inhibitor, single point]	–
N#Cc1ccccc1OCC(=O)NNC(=O)CCC1CCCC1	–	inactive: 1.61%
O=C(OC1CCCCC1=O)c1cc(S(=O)(=O)N2CCOCC2)ccc1F (centres undefined)	–	inactive: 1.55%
COc1ccc(C2N(c3ccc(Cl)cc3)C(=O)C3CCCN32)cc1 (centres undefined)	–	inactive: -2.3%
C=C(C)COc1ccc(-c2nc(N)ncc2Oc2ccccc2OCC)c(O)c1	active: 4.47 µM	–
